Data on 71 compounds can be found in PubChem BioAssay AID1240 (Sanford-Burnham Center for Chemical Genomics, 2008).

SMILES strings stand for the structures. In all, about 50,000 compounds went through this assay and about 800 (1.6%) showed an effect of 50% or more. The list shows a part of the results.

This assay concerns the target Bcl-2-like protein 10 (Homo sapiens) (UniProt Q9HD36). Description: Phenotype converters, Bcl-B/TR3 peptide binding displacement, primary biochemical FP (AID 1240).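 Note: 0% = Bcl-B with tracer peptide and DMSO and 100% = tracer peptide lacking Bcl-B.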 The conditions noted are these: GST-Bcl-B / FITC-TR3 peptide fluorescence polarization; stronger effect = higher value; compound at 3.75 mg/L. A general note: Polarisation of emitted light reports the rotation of a fluorescent probe.
Chain of UniProt Q9HD36 (Q9HD36 whole entry, looked up): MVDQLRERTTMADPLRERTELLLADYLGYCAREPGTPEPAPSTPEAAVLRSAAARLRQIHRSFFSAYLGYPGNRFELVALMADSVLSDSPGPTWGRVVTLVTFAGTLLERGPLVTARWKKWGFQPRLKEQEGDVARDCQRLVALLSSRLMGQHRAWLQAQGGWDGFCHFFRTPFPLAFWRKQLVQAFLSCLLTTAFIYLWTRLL
For `O=c1oc2ccccc2c(O)c1C(c1cccnc1)c1c(O)c2ccccc2oc1=O`, the displacement was found to be 3.8%. `Cc1cc(C=C2C(=O)NC(=O)NC2=O)c(C)n1-c1ccc(N(C)C)cc1`: the displacement was determined as 0.1%. Consider `Cc1ccc(-n2c(-c3ccccc3F)nc3ccccc3c2=O)cc1`, for which the displacement was -0.1%. As for `O=c1c2ccccc2nc(/C=C\c2ccccc2)n1-c1ccc(O)cc1`, the figure is -4.1%; as for `CCC(=O)O[C@]1(c2ccccc2)CCN(C)[C@H]2CCC[C@H]21`, -5.5%; as for `COc1ccc(C(c2c(O)c3ccccc3oc2=O)c2c(O)c3ccccc3oc2=O)cc1CN1CCOCC1`, 15.4%. As for `C=CCSc1nc2ccccc2c(=O)n1-c1ccccc1OC`, the figure is 1.1%.

As to `Cc1cccnc1-n1c(-c2ccc(Cl)cc2Cl)nc2ccccc2c1=O`, the displacement was -12.2%.

Regarding `OC1C2CCC1C(N1CCCCC1)CC2` (stereo unspecified), the displacement was -3.7%.

Turning to `COc1ccc(CN2CCN(Cc3ccccc3Cl)CC2)cc1Br`, the displacement is -15%. As for `Cc1cc(Cl)ccc1OCC(=O)N1CCN(C/C=C/c2ccccc2)CC1`, the displacement is -0.9%. For the compound `CN1C(=O)NC(=O)/C(=C/c2cn(C)c3ccccc23)C1=O`, the displacement is 108%.

Turning to `O=[N+]([O-])N=C1NC(OCc2ccccc2)C(OCc2ccccc2)N1` (stereo unspecified), the displacement stood at 1.4%.

Regarding `CCCCn1c(=O)c(C(=O)Nc2ccc(I)cc2)c(O)c2ccccc21`, the displacement came out at 7.1%. The value for `CC1(C)C(C(=O)Nc2cccnc2)C1(C)C` was -1.5%; that for `CN1C(=O)NC(=O)/C(=C\c2cc3c(cc2Cl)OCO3)C1=O` was 0.4%; that for `O=c1oc2ccccc2c2c1C(c1ccc(Cl)cc1)c1c(c3ccccc3oc1=O)O2` was 10.3%. Take `CC12CCC3C(CC=C4CC(O)CCC43C)C1C/C(=C\c1ccc(F)cc1)C2=O` (stereo unspecified): the displacement was determined as 15.1%. As for `CCC1(c2ccccc2)C(=O)NC(=O)N(C(=O)c2ccccc2Br)C1=O` (stereo unspecified), the figure is 0.5%; as for `O=C(Nc1ccc(Cl)cc1C(=O)c1ccccc1Cl)c1ccco1`, 0.4%. As for `COc1cc(OC)c(OC)cc1CN1CCN(C(=O)COc2ccccc2)CC1`, the displacement is -13.1%. The value for `COc1ccc(C=C(C#N)C#N)c(OC)c1` was 3.6%.

Take `O=C1NC(=S)NC(=O)C1=Cc1ccc(-c2ccc([N+](=O)[O-])cc2Br)o1`: the displacement was 29%. As for `COc1cc(C=C2C(=O)NC(=O)NC2=O)cc(Cl)c1O`, the figure is 8.5%; as for `COc1cc(/C=C2\C(=O)NC(=O)N(c3ccccc3)C2=O)c([N+](=O)[O-])cc1OC`, 22.8%; as for `O=c1c2ccccc2[nH]c(=S)n1-c1ccc(Cl)cc1`, -10.5%. The value for `COc1ccc(OC)c(CN2CCN(C(=O)COc3ccccc3)CC2)c1` was 0.4%; that for `CC(C)Oc1ccc(Br)cc1C=C1C(=O)NC(=O)NC1=O` was 14.5%. The value for `O=c1c2ccccc2nc(/C=C/c2cc(Br)ccc2O)n1-c1ccc([N+](=O)[O-])cc1` was 6.7%. With `Cc1cc(C)cc(-n2c(C)cc(C=C3C(=O)NC(=O)NC3=O)c2C)c1`, the displacement amounted to 13.1%. The value for `Cc1cc(N2CCNCC2)c2ccccc2n1` was -4.7%. As for `Cc1ccc(-n2c(/C=C/c3c[nH]c4ccccc34)nc3ccccc3c2=O)cc1`, the displacement is -0.5%. As for `O=C1NC(=O)C(=Cc2cccc(OCCOc3ccc([N+](=O)[O-])cc3)c2)C(=O)N1`, the figure is -7.4%. As for `O=C(Cc1ccccc1)N1CCN(C2CCCC2)CC1`, the figure is -3.6%; as for `CN1CCN(/N=C/c2c(O)n(C)c(=O)n(C)c2=O)CC1`, -2.6%. The value for `Cc1cc(C=C2C(=O)NC(=O)NC2=O)c(C)n1C1CCCCC1` was 124%; that for `O=C1c2ccccc2C(=O)N1CC1CS1` (stereo unspecified) was 15.1%. `O=C(O)C12C3CCCC1C32c1ccccc1` (stereo unspecified): the displacement is 21.9%. As to `CC(C)CCn1c(=O)c(C(=O)Nc2nc3ccc(Br)cc3s2)c(O)c2ccccc21`, the displacement stood at 4.5%. As for `O=C1NC(=S)N(c2ccc(F)cc2)C(=O)/C1=C/c1ccc2c(c1)OCO2`, the figure is -4.8%. For the compound `O=C(c1ccccc1)c1cc(Cl)ccc1NC(=O)c1nc[nH]c1C(=O)N1CCCCC1`, the displacement was -12.3%.

In the case of `O=C1NC(=O)C(=Cc2ccc3c(c2)OCO3)C(=O)N1`, the displacement is 0.3%. The value for `CCOc1ccc(-n2c(-c3ccccn3)nc3ccccc3c2=O)cc1` was -10.2%; that for `O=[N+]([O-])c1ccc(N2CCNCC2)c2cccnc12` was 18.7%; that for `C=CCN1C(=O)NC(=O)/C(=C/c2ccc(N(C)C)c(Br)c2)C1=O` was 7.5%. The value for `CCC1(c2ccccc2)C(=O)NC(=O)N(C(=O)c2ccc(Cl)cc2)C1=O` (stereo unspecified) was 3.8%; that for `COc1ccc(CCNCc2ccccn2)cc1` was -2.8%. With `Cc1ccccc1C(=O)Nc1cc(Cl)c([N+](=O)[O-])cc1Cl`, the displacement amounted to 29.5%. For `COc1ccccc1CCNCc1cccc(Cl)c1`, the displacement is -8.8%. The value for `Cc1ccc(C(c2c(O)c3ccccc3oc2=O)c2c(O)c3ccccc3oc2=O)cc1` was 11.4%; that for `Cc1cc(-c2ccccc2)[n+]2cc(Br)ccc2n1` was 3.9%; that for `CCC(CC)N1CCN(Cc2cccc(Cl)c2)CC1` was -6.2%.

As for `O=C1NC(=O)N(c2ccc3c(c2)OCO3)C(=O)/C1=C/c1ccc(OCc2cccc(C(=O)O)c2)cc1`, the displacement stood at 12.1%. As for `CCCCSc1nc2ccccc2c(=O)n1-c1ccccc1OC`, the figure is -4.3%; as for `O=[N+]([O-])c1cc2c(cc1CNCCc1c[nH]c3ccccc13)OCO2`, 13.9%. Consider `OC12CCCCC1C(c1ccc(Br)cc1)NCC2` (stereo unspecified), for which the displacement is -7.4%. The value for `CCOc1ccc(N2C(=O)CC(=O)NC2=S)cc1` was 4.1%. As to `O=C1NC(=O)N(c2ccccc2)C(=O)/C1=C\c1ccc(-c2ccc(C(=O)O)cc2)o1`, the displacement is 12.3%. As for `CCCC1(c2ccccc2)C(=O)NC(=O)NC1=O`, the figure is 1.1%; as for `O=[N+]([O-])c1ccc(N2CCCC2)c2ncccc12`, 21.6%; as for `O=c1c2ccccc2[nH]c(=S)n1-c1ccccc1`, -9.7%. The value for `Cc1cccc(-n2c(/C=C3\C(=O)Nc4ccccc43)nc3ccccc3c2=O)c1` was 2.4%; that for `O=c1c2ccccc2nc(/C=C/c2ccc(O)c(O)c2)n1-c1ccccc1` was 1.9%. As for `O=[N+]([O-])c1cccc(CNCCc2cccc(Cl)c2)c1`, the figure is 11.2%. Regarding `O=[N+]([O-])c1cc(F)c(N2CCCCC2)cc1Br`, the displacement was -3%. Consider `CCCNC(=O)C1CN1Cc1ccc(OC)cc1` (stereo unspecified), for which the displacement worked out at 0.5%. The value for `O=C(COc1ccc(Cl)cc1)N1CCN(Cc2cccc(F)c2)CC1` was 6.9%; that for `Cc1nc2ccccc2c(=O)n1-c1cccnc1` was 9%. In the case of `O=C1CC(=O)N(c2ccc(Br)cc2)C(=S)N1`, the displacement stood at 4.1%. The value for `O=C(/C=C/c1ccc(N2N=N2)cc1)/C=C/c1ccc(N2N=N2)cc1` was -0.9%.

In the case of `O=C1NC(=O)N(c2ccccc2F)C(=O)/C1=C/c1ccc(-c2cc(C(=O)O)ccc2Cl)o1`, the displacement came out at 11%.
